Among the data in the supplement of paper PMC10126150 are switch fluorescence ratio values, retold here.

Sequences with one replicate were seen in a single cluster, so their values are uncertain.
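Further: ATP exposure 15 min at 22 °C before imaging.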

The test system of the series is ATP. Briefly: switch fluorescence ratio, 500 uM ATP over buffer (Cy3 cluster intensity, sum of 5 cycles each) (fold (ratio)); higher = stronger signal-on switching upon ATP binding; sequences stand for … in TCGTCGGCAGCGTCAGATGTGTATAAGAGACAGTTTTTTTTTTTTTTTTTTTTTTTTT…TC. The conditions noted are these: aptamer strand: ATP DNA aptamer (quencher-CACCTGGGGGAGTATTGCGGAGGAAGG + anchor), 100 nM annealed; ATP concentration: 500 uM; one replicate. The method, boiled down:
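Values give the fluorescence ratio for each switch-domain sequence, averaged from per-cluster ratios of summed target-cycle to summed buffer-cycle Cy3 intensity. The Cy3-labelled switching-strand clusters sat on a modified Illumina MiSeq flow-cell, were annealed to 100 nM quencher-labelled ATP aptamer, and were imaged in selection buffer, then after 15 min with 500 uM ATP at 22 °C. Five cycles ran with NaOH stripping and re-annealing between them, and clusters outside 100-1000 RFU were excluded.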
On to GACTGCATAA, for which the switch fluorescence ratio was 1.37.
In the case of AACGAGGATA it was 0.97.
In the case of TCGGCGCCCC it was 1.01; in that of AGTTGAGGCA, 0.982; in that of TTAGCCGTGG, 0.983.
As to AACGTCTTCT, the switch fluorescence ratio was 0.964.
Take GATGAATCTA: the switch fluorescence ratio was determined as 0.996.
In the case of TGCATCCCCG it was 1.41.
In the case of GTTGGAGTGA it was 0.988; in that of GAATCTGATT, 1.02.
As to CGTGGGATCC, the switch fluorescence ratio was 1.
In the case of GGCCCTGCCC it was 1.03; in that of ATTGTTGGCG, 1.06.
In the case of TATTTCGGT it was 0.953; in that of ATACCGCTGA, 1.26; in that of AGTAGCTCAT, 0.962.
As for AGCCTCTAGC, the switch fluorescence ratio was 0.972.
In the case of TTATCGGTGG it was 1.04.
In the case of TGGTTTCGTT it was 0.943; in that of CAAGAAGGTT, 0.978; in that of TAAATCGAGA, 1.02.
In the case of AGTGCAAAAA it was 2.75.
Turning to AATTGTCAAG, the switch fluorescence ratio stood at 1.01.
Consider TCCACGCCGT, for which the switch fluorescence ratio stood at 1.06.
On to AGATTCGGGC, for which the switch fluorescence ratio came out at 1.
Turning to GATTGCTGGA, the switch fluorescence ratio is 0.992.
In the case of AGTGTGTCAC it was 1.04; in that of GGGATTATCT, 1.01.
Consider TTTGCGTCA, for which the switch fluorescence ratio worked out at 1.01.
In the case of GTAGCTGGTA it was 0.989.
In the case of ACATACGGAG it was 1.17; in that of CCTCGTG, 1.04; in that of TTATTATAC, 1.05.
For GCAGCTCAGG, the switch fluorescence ratio was found to be 1.33.
In the case of GCCATCTGTC it was 0.965.
In the case of CCACAGGGAG it was 1.28; in that of GCGCCCTGTC, 1.08.
In the case of GCGAATCCCG it was 1.07.
TTCGAGCTTG: the switch fluorescence ratio was 0.953.
For the sequence GAGTATAGCG, the switch fluorescence ratio was 0.989.
In the case of ATAGCGGCTT it was 0.975; in that of TTGAAACCAG, 1.03; in that of CCAGTGCGGG, 0.982.
For the sequence ATCTATGAGC, the switch fluorescence ratio was found to be 1.02.
In the case of ATCGAATGCC it was 0.934; in that of TAGATGTT, 0.97; in that of GTGTAGAGAA, 0.981.
In the case of CATAAAACCG it was 0.992; in that of CATGTGACAG, 1; in that of CTGCAATGTA, 2.36.
In the case of AGTTATCTCG it was 1.06.
On to ATAGTGCCTT, for which the switch fluorescence ratio stood at 1.02.
ACCGGAGCTG: the switch fluorescence ratio came out at 1.51.
On to AGAATGCAGT, for which the switch fluorescence ratio came to 1.02.
In the case of CGAGATTATT it was 1.06; in that of ATCATGGACT, 0.984; in that of GTCAAATAGT, 0.927.
In the case of GCCCCTATAT it was 1.06; in that of GTGGTCCCAC, 0.985; in that of GATATTGGAC, 1.
In the case of CGTGCAAACG it was 1.01.
With ATCCCGGTC, the switch fluorescence ratio is 1.03.
In the case of ATTAAACGTC it was 1.06; in that of TGTCTGAGTT, 0.955; in that of GCGACCTGAG, 1.1.
In the case of TACCCATCGG it was 1; in that of GCGGGGCATT, 0.992.
In the case of GCGGGAAATG it was 1.05; in that of GGGGACGCAA, 3.29.
Take TTGCACCTTT: the switch fluorescence ratio stood at 0.989.
For TCGGAAAAGC, the switch fluorescence ratio was 1.01.
In the case of TTGTACGATG it was 1; in that of CAAAAGTGAG, 0.998; in that of CCTTAGTGTG, 1.04.
In the case of ACTTTAATCG it was 1.01; in that of TTGCGGACGA, 1; in that of AGTCGCACTT, 0.978.
In the case of TTAATGGTT it was 1.07; in that of ACTACTCATC, 1.1; in that of TGGTCGCATA, 1.
In the case of GTTAACTCGT, the switch fluorescence ratio is 0.989.
As to TTGATAAAG, the switch fluorescence ratio was 0.989.
Regarding TTTACGGTAG, the switch fluorescence ratio came out at 1.03.
In the case of GTTGTCTAAA it was 0.979; in that of TCTTATTCGG, 1.05; in that of AATAGTTAAG, 0.968.
In the case of ATGCCCAGAC it was 1.09.
In the case of GGTCTTGT it was 0.991.
Take GAGTCCCTTT: the switch fluorescence ratio was 1.01.
Turning to GGGATGCGGA, the switch fluorescence ratio is 1.11.
Turning to TGTGGGAAAG, the switch fluorescence ratio was 0.976.
As for TGCGTGAGTA, the switch fluorescence ratio was found to be 1.04.
In the case of CGTATACAAC it was 1.06; in that of GGCGGAGCGT, 0.961; in that of CCTAAACTTC, 0.996.
With TCTAGGGACT, the switch fluorescence ratio worked out at 0.954.
For the sequence TCCGAGGATA, the switch fluorescence ratio turned out to be 1.08.
Take CTGTCAATAG: the switch fluorescence ratio is 6.03.
In the case of ACGCAGGTCC it was 1.27; in that of GATGTGTTCG, 1.
As for ACCGAATAAC, the switch fluorescence ratio worked out at 1.33.
In the case of CAGAGTCAGC it was 0.961; in that of AAATGTACTA, 1.04.
In the case of TAAGCCGCTC it was 1.04; in that of AGATTATCCT, 1.07; in that of AATTACGACG, 1.1.
In the case of GTTATCGACG it was 1.05; in that of TAGCTGACAT, 1.02.
GGGACTACTG: the switch fluorescence ratio stood at 1.07.
Regarding TTTAGCGTAG, the switch fluorescence ratio is 1.01.
In the case of TATCTGATCT, the switch fluorescence ratio is 1.06.
In the case of TATGACAACC it was 1.09; in that of GACACACATT, 1.31.
In the case of TTACGTATGG it was 1.06.
In the case of TGAAGAGCCT it was 1.06; in that of AGTGGGTGCA, 0.988; in that of ATTTCCGCGC, 2.81.
In the case of TAGAGCTCTC, the switch fluorescence ratio was found to be 0.973.
Regarding GTATTGGAAC, the switch fluorescence ratio came to 0.998.
In the case of TATGGTACAA it was 1.13.
